Patent US9040042B2, “Optimized antibodies that target HM1.24” (Xencor, Inc., priority 2006, dated 2015)

Assays:
[1] = test system: PBMCs; assay: Flow cytometry binding of anti-HM1.24 antibody to cell types in PBMCs; parameters: species or system human; details: PMNs, B-cells, monocytes, NK cells, T cells; 6-color flow cytometry; FIG. 7
Experimental: Flow cytometry was used to confirm the binding of anti-HM1.24 antibody to HM1.24 antigen and plasma cells, as well as to evaluate the expression of HM1.24 on various cell types in PBMCs. 1×10^6 PBMCs were first mixed with either unlabelled HM1.24_H0L0_IgG1_WT or isotype control IgG1 (hIgG_Kappa, from Sigma) antibody. A mixture of cell type specific labeled antibodies (all mouse anti-human CD, BD Biosciences) was then added to tag the specific cell types in the PBMCs. The following antibodies were used: anti-CD15-FITC (BD 555401) for labeling PMNs, anti-CD19-PerCP-Cy5.5 (BD 3409510) for labeling B-cells, anti-CD14-PE-Cy7 (BD 557742) for labeling monocytes, ant-CD56-APC (BD 555518) for labeling NK cells, and anti-CD3-APC-Cy3 (BD 557832) for labeling T cells. After incubation on ice for 30 min. in the dark, the cells were washed and mixed with R-PE conjugated F(ab′)2 fragment Goat anti-human IgG (against fc-gamma fragment) to specifically label the primary test antibody (anti-HM1.24 or isotype control). After incubation, cells were washed again and analyzed by 6-color flow cytometry using a FACS Canto II flow cytometer to determine the expression of HM1.24 on any of these specific cell types in PBMCs.

[2] = test system: HM1.24+ multiple myeloma RPMI 8226 cells; assay: Flow cytometry binding to HM1.24+ multiple myeloma RPMI 8226 cells; details: multiple myeloma cell line RPMI 8226, 1 million cells; FIG. 8
Experimental: Flow cytometry was used to confirm the binding of anti-HM1.24 antibody to HM1.24 antigen and plasma cells, as well as to evaluate the expression of HM1.24 on various cell types in PBMCs. 1×10^6 PBMCs were first mixed with either unlabelled HM1.24_H0L0_IgG1_WT or isotype control IgG1 (hIgG_Kappa, from Sigma) antibody. A mixture of cell type specific labeled antibodies (all mouse anti-human CD, BD Biosciences) was then added to tag the specific cell types in the PBMCs. The following antibodies were used: anti-CD15-FITC (BD 555401) for labeling PMNs, anti-CD19-PerCP-Cy5.5 (BD 3409510) for labeling B-cells, anti-CD14-PE-Cy7 (BD 557742) for labeling monocytes, ant-CD56-APC (BD 555518) for labeling NK cells, and anti-CD3-APC-Cy3 (BD 557832) for labeling T cells. After incubation on ice for 30 min. in the dark, the cells were washed and mixed with R-PE conjugated F(ab′)2 fragment Goat anti-human IgG (against fc-gamma fragment) to specifically label the primary test antibody (anti-HM1.24 or isotype control). After incubation, cells were washed again and analyzed by 6-color flow cytometry using a FACS Canto II flow cytometer to determine the expression of HM1.24 on any of these specific cell types in PBMCs. […]

[3] = test system: HM1.24+ RPMI8226 cells; assay: Cell-based ADCC assay (LDH release), PBMC effector cells; details: RPMI8226 target cells, 4 hours at 37° C., FIG. 9
Experimental: The capacity of the variant antibodies to mediate effector function against HM1.24 expressing cells was tested in a cell-based ADCC assay (FIG. 9). Human peripheral blood monocytes (PBMCs) were isolated from leukopaks and used as effector cells, and HM1.24+ RPMI8226 cells were used as target cells. 10,0000 RPMI8226 target cells were incubated with 450,000 effector cells (non-adherent PBMC cells from a healthy donor) in 100 ul of 1% FBS/RPMI1640 ADCC assay media in the presence of antibodies. After 4 hours at 37° C., relative ADCC activity was detected using fluorescent LDH (lactate dehydrogenase release) detection system from Promega as per manufacturer's protocol. The ADCC activity was determined by the following: ((Experimental Value−(Effector and Target))/(Total Target−Target Alone))*100 where Total Target value is RPMI8226 cells lysed with 1% TritonX100. […] However, optimization of the antibody by engineering Fc variants with enhanced FcγR affinity enables a significant amount of ADCC activity.
The humanized variants were also screened for their capacity to mediate effector function against HM1.24+ cells in an ADCC assay, as described above. […]
The ability of the variant anti-HM1.24 antibodies to mediate effector function was evaluated in an ADCC assay, as described above.

B1: HM1.24_H0L0_IgG1_WT: Anti-HM1.24 antibody with murine WT VH (H0) and VL (L0), human kappa and IgG1 constant regions (antibody)
heavy: QVQLQQSGAELARPGASVKLSCKASGYTFTPYWMQWVKQRPGQGLEWIGSIFPGDGDTRYSQKFKGKATLTADKSSSTAYMQLSILAFEDSAVYYCARGLRRGGYYFDYWGQGTTLTVSS[not shown - human IgG1 constant region]
light: DIVMTQSHKFMSTSVGDRVSITCKASQDVNTAVAWYQQKPGQSPKLLIYSASNRYTGVPDRITGSGSGTDFTFTISSVQAEDLALYYCQQHYSTPFTFGSGTKLEIKRTVAAPSVFIFPPSDEQLKSGTASVVCLLNNFYPREAKVQWKVDNALQSGNSQESVTEQDSKDSTYSLSSTLTLSKADYEKHKVYACEVTHQGLSSPVTKSFNRGEC
- binding to PBMC cell types (HM1.24 expression) [1]: not expressed to a significant degree
- binding to plasma cells [2]: bind well
- ADCC activity [3]: does not mediate ADCC
